Data published in patent publication US20070224633A1 (Pieris, published 2007).

Assays:
[1] = molecular target: T1, human CD154 on CHO-K1 cells transfected with CD154-pcDNA3.1Zeo(+) (human, UniProt P29965 1-261); assay: flow cytometry on CHO cells expressing human CD154, fluorescein-labelled protein
T1 construct: also called CHO-CD154; CHO cell line expressing human CD154
T1 sequence: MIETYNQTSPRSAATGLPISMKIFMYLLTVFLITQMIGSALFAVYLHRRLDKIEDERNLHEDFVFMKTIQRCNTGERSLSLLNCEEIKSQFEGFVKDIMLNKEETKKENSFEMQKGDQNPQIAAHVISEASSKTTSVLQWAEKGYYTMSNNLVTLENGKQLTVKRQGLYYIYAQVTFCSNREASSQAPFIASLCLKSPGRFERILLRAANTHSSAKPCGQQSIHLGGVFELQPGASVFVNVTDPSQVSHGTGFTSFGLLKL
Description: The mutein F92.8 M1.2 E15 was tested for specific binding to a CHO cell line expressing human CD25 in a flow cytometry assay. For this purpose, the CD25-pcDNA3.1 Zeo(+)- or CD154-pcDNA3.1Zeo(+)-transfected CHO cells described in Examples 15 and 22, respectively were detached from culture flasks with 0.2% w/v EDTA. Approximately 200,000 cells were resuspended in 30 μl PBS/2% v/v FCS and incubated with 2.5 μg of monomeric F92.8 M1.2 E15 fraction obtained as described in Example 20 and labeled at a twofold molar ratio with fluorescein (Fluorescein-5(6)-carboxamido caproic acid N-succinimidyl ester; Fluka) based on the protocol described in Schlehuber and Skerra (supra). As a negative control, 2.5 μg of the recombinant wild type TLPC encoded by pTLPC8 and labeled with fluorescein at a twofold molar ratio was employed. CD25 expression was confirmed with FITC-labeled anti-CD25 mAb (Acris, DM519F), using FITC-labeled IgG1 (Acris, SM10F) as isotype control. After 30 min incubation on ice, cells were washed twice with PBS/2% v/v FCS prior to analysis by flow cytometry using a FACSCalibur (Becton Dickinson).

[2] = molecular target: T2, human CD25 on CHO-K1 cells transfected with CD25-pcDNA3.1Zeo(+) (human, UniProt P01589 22-272); assay: flow cytometry on CHO cells expressing human CD25, fluorescein-labelled protein
T2 construct: also called CHO-CD25; CHO cell line expressing human CD25
T2 sequence: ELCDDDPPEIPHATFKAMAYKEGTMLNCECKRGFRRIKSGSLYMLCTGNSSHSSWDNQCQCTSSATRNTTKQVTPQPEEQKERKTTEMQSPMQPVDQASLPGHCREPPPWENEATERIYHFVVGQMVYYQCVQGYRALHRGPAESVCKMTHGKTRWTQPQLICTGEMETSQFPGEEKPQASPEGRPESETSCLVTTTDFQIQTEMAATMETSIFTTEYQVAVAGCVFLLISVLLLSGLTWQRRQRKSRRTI
Description: The mutein S67.7 C6 was tested for specific binding to a CHO cell line expressing human CD25 in a flow cytometry assay. For this purpose, the CD25-pcDNA3.1Zeo(+)- or pcDNA3.1Zeo(+)-transfected CHO cells described in Example 15 were detached from culture flasks with 0.2% w/v EDTA. Approximately 200,000 cells were resuspended in 30 μl PBS/2% v/v FCS and incubated with 10 μg S67.7 C6 obtained as described in Example 13 and labeled with fluorescein (Fluorescein-5(6)-carboxamido caproic acid N-succinimidyl ester; Fluka) at an equimolar ratio based on the protocol described in Schlehuber and Skerra (Biol. Chem. (2001) 382, 1335-1342). As a negative control, 10 μg of the recombinant wild type TLPC encoded by pTLPC8 and labeled with fluorescein at an equimolar ratio was employed. CD25 expression was confirmed with FITC-labeled anti-CD25 mAb (Acris, DM519F), using FITC-labeled IgG1 (Acris, SM10F) as isotype control. After 30 min incubation on ice, cells were washed twice with PBS/2% v/v FCS prior to analysis by flow cytometry using a FACSCalibur (Becton Dickinson).

B1: recombinant wild type TLPC encoded by pTLPC8 (other)
chain: DGGEEIQDVSGTWYLKAMTVDREFPEMNLESVTPMTLTTLEGGNLEAKVTMLISGRCQEVKAVLEKTDEPGKYTADGGKHVAYIIRSHVKDHYIFYSEGQLHGKPVRGVKLVGRDPKNNLEALEDFEKAAGARGLSTESILIPRQSETCSPGDASMTGGQQMGSAWSHPQFEK
modifications: labeled with fluorescein (equimolar ratio in Example 16, twofold molar ratio in Example 23); sites not stated
notes: In the modified lipocalin the first four and last two residues of the mature protein are deleted; Positions 5-7 are changed to GGD, with Cys101Ser and Glu104Gln
binding result [1]: no binding (tested: 2.5 µg in 30 µl) | binding result [2]: no binding (tested: 10 µg in 30 µl)
